Molecules are shown by their SMILES. Hit rate of the full screen: of about 39,000 compounds, about 220 (0.56%) showed activity. The list shows a part of the results.
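Further: static incubation at 37 °C against the wild-type strain, values averaged over two biological replicates.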

For this assay, the system named is Escherichia coli K-12 BW25113. Put plainly: relative growth (OD600 normalised to plate interquartile mean) (fraction); higher = less growth inhibition, active = 0.2 or less. To be noted: 50 µM; LB; incubation time: overnight (16-24 h).
Regarding `O=C(NO)c1cccc(C(=O)N/N=C/[C@H](O)[C@@H](O)[C@H](O)CO)c1`, the relative growth was inactive: 0.986.
Next, `C[C@H](CO)N1C[C@H](C)[C@@H](CN(C)Cc2ccc(-c3ccccc3)cc2)Oc2ccc(NC(=O)Nc3ccccc3)cc2CC1=O`: inactive: 1.04; `C[C@H](CO)N1C[C@H](C)[C@H](CN(C)Cc2ccc(-c3ccccc3)cc2)Oc2c(NC(=O)NC3CCCCC3)cccc2C1=O`: inactive: 0.984; `C[C@@H]1CN([C@H](C)CO)C(=O)c2cc(NS(=O)(=O)c3cccs3)ccc2O[C@H]1CN(C)S(=O)(=O)c1cn(C)cn1`: inactive: 0.988.
For `Cc1cc(C(=O)Nc2cccc3c2O[C@H](CN(C)C(=O)NC2CCCCC2)[C@@H](C)CN([C@H](C)CO)C3=O)n(C)n1` the value was inactive: 1.01; for `C[C@H](CO)N1C[C@H](C)[C@H](CN(C)C(=O)Cc2ccncc2)Oc2cc(C#CC3CCCCC3)ccc2S1(=O)=O`, inactive: 0.989.
For `C[C@H](CO)N1C[C@H](C)[C@H](CN(C)S(=O)(=O)c2ccc(Cl)cc2)OCc2cn(nn2)CCCC1=O` the value was inactive: 1.02; for `CO[C@H]1O[C@H](CO)[C@@H](OC(=O)Nc2ccc3c(c2)OCO3)[C@@H]2OC(=O)[C@H](Cc3cccc(Br)c3)C/C=C/C[C@@H](Cc3cccc(Br)c3)C(=O)O[C@@H]12`, inactive: 1.04.
Consider `CCS(=O)(=O)N1C[C@@H](C)[C@H](OC)CN(C)C(=O)c2cc(NS(=O)(=O)c3ccccc3C)ccc2OC[C@H]1C`, for which the relative growth was inactive: 1.03.
Next, `C[C@@H]1CN([C@@H](C)CO)S(=O)(=O)c2ccc(C#C[C@@H](C)O)cc2O[C@H]1CN(C)C`: inactive: 0.982; `C[C@H]1CN([C@@H](C)CO)C(=O)CCCn2nncc2CO[C@@H]1CN(C)S(C)(=O)=O`: inactive: 1.01.
Consider `CN1CCN(c2c(F)cc3c(=O)c(C(=O)O)cn4c3c2OCN4C)CC1`, for which the relative growth is active: 0.0475.
For `C[C@@H]1CN([C@H](C)CO)C(=O)CCCn2nncc2CO[C@H]1CN(C)C(=O)c1cc(-c2ccccc2)on1` the value was inactive: 0.999.
In the case of `C[C@@H]1CCCCO[C@H](CN(C)S(=O)(=O)c2cccs2)[C@@H](C)CN([C@H](C)CO)C(=O)c2cc(NC(=O)Nc3ccc(F)cc3)ccc2O1`, the relative growth was inactive: 0.991.
Next, `CN(C)CCCNC(=O)C[C@@H]1CC[C@@H]2[C@@H](COc3ccc(NS(C)(=O)=O)cc3C(=O)N2C)O1`: inactive: 0.993; `COc1ccc(NC(=O)Nc2ccc3c(c2)C(=O)N([C@H](C)CO)C[C@@H](C)[C@H](CN(C)Cc2ccc(Oc4ccccc4)cc2)O3)cc1`: inactive: 1.02.
As for `C[C@@H]1CN([C@H](C)CO)C(=O)c2cc(NC(=O)NC3CCCCC3)ccc2O[C@@H](C)CCCCO[C@H]1CN(C)C(=O)NC1CCCCC1`, the relative growth is inactive: 0.993.
`Cc1noc(C)c1S(=O)(=O)N(C)C[C@@H]1Oc2ccc(NS(=O)(=O)c3ccc(Cl)cc3)cc2CC(=O)N([C@@H](C)CO)C[C@@H]1C`: the relative growth is inactive: 1.01.
For `CNc1nc(SCC(N)=O)nc(N2CCOCC2)n1` the value was inactive: 1.01; for `CC(=C\C(=O)O)/C=C(\C)C[C@H](C)CCCC[C@H](OC(=O)[C@H](CO)[C@H](O)CCCC[C@H](C)C/C(C)=C/C(C)=C/C(=O)O)[C@@H](CO)C(=O)O`, inactive: 1.01.
Take `C[C@@H]1CN([C@H](C)CO)C(=O)c2cc(NC(=O)Nc3ccc(F)cc3)ccc2O[C@@H]1CN(C)Cc1ccc(-c2ccccc2)cc1`: the relative growth is inactive: 1.02.
For `Cc1ccc(S(=O)(=O)Nc2ccc3c(c2)C(=O)N([C@@H](C)CO)C[C@H](C)[C@@H](CN(C)S(=O)(=O)c2ccc(F)cc2)OCCCC[C@@H](C)O3)cc1` the value was inactive: 1.04; for `NC(=O)c1cc(Cl)ccn1`, inactive: 0.991.
Next, `C[C@H]1CN([C@@H](C)CO)C(=O)c2cc(NC(=O)CCN3CCOCC3)ccc2O[C@@H]1CN(C)Cc1ccc2c(c1)OCO2`: inactive: 0.998; `COc1c(N2CC3CCCNC3C2)c(F)cc2c(=O)c(C(=O)O)cn(C3CC3)c12.Cl` (stereo unspecified): active: 0.0459.
For `CC(C)(C)CC(C)(C)c1ccc(O)c(Cc2ccc(Cl)cc2Cl)c1` the value was inactive: 0.774.
With `CCc1cccc(C)c1NC(C)=O`, the relative growth was inactive: 0.979.
As to `CN(C)CC#Cc1ccc([C@@H]2[C@@H](CO)N3C(=O)CN(C(=O)CN(C)C)C[C@@H]23)cc1`, the relative growth was inactive: 0.997.
For `CC(C)C[C@@H](N)C(=O)NC1CCN(C(=O)C2CCCC2)CC1` the value was inactive: 0.999; for `NC(C(=O)O)C(O)C(O)C(O)CO` (stereo unspecified), inactive: 1.
Regarding `Cc1ccc(S(=O)(=O)Nc2ccc3c(c2)C(=O)N([C@@H](C)CO)C[C@H](C)[C@@H](CN(C)S(=O)(=O)c2cccs2)O3)cc1`, the relative growth is inactive: 1.01.
For `C[C@@H]1CN([C@H](C)CO)C(=O)c2cc(NS(=O)(=O)c3ccccc3)ccc2O[C@@H](C)CCCCO[C@@H]1CN(C)Cc1ccc(C(=O)O)cc1` the value was inactive: 0.995.
For `CCC(=O)N[C@H]1C=C[C@H](CC(=O)OC)O[C@@H]1CO` the value was inactive: 0.971; for `C[C@H](CO)N1C[C@H](C)[C@@H](CN(C)S(=O)(=O)c2ccccc2)Oc2ccc(NC(=O)c3ccncc3)cc2CC1=O`, inactive: 1.01.
For `C[C@H](CO)N1C[C@H](C)[C@H](CN(C)S(=O)(=O)c2ccc(F)cc2)Oc2cc(Br)ccc2S1(=O)=O` the value was inactive: 1.01; for `CCS(=O)(=O)N1CC[C@]2(CC1)CN([C@H](CO)c1c2c2ccc(cc2n1C)OC)C(=O)CN1CCOCC1`, inactive: 0.983.
Consider `O=C1/C(=C/c2cn(-c3ccccc3)nc2-c2ccc(OCc3ccccc3)cc2)SC(=S)N1CCS(=O)(=O)O`, for which the relative growth was inactive: 0.873.
On to `Cc1cc(N)n2nc(C)cc2n1`, for which the relative growth is inactive: 1.
Next, `COc1ccc(S(=O)(=O)N(C)C[C@@H]2Oc3ccc(NS(=O)(=O)c4cccs4)cc3CC(=O)N([C@H](C)CO)C[C@@H]2C)cc1`: inactive: 1.01.
Next, `COc1ccc(S(=O)(=O)Nc2ccc3c(c2)C(=O)N([C@@H](C)CO)C[C@@H](C)[C@@H](CN(C)S(=O)(=O)c2c(C)noc2C)O3)cc1`: inactive: 1.01; `C[C@H](CO)N1C[C@H](C)[C@@H](CN(C)C(=O)Nc2cccc(C(F)(F)F)c2)OCc2cn(nn2)CCCC1=O`: inactive: 0.971.

The values above are taken from the supplement of paper PMC9446081.
